The record followed here is PubChem BioAssay AID463173 (ICCB-Longwood Screening Facility, Harvard Medical School, 2010).

Each structure is given as a SMILES string. Among all 52,000 compounds or so, about 1,700 (3.3%) were called active. No stated cut-off is given here; in the data, active means survival mostly below about 52% (no sharp cut-off); inactive means mostly above about 56%. This is one part of the list.

This assay has as its system Wild type. Nature of the assay: S. aureus survival, RN4220 and DeltatarO strains – OD600, teichoic acid synthesis inhibitors, primary screen (AID 463173). To be noted: S. aureus RN4220 wild type/DeltatarO growth, OD600, 18 h, hits give low values, screened at 18.75 µg/mL (by protocol).
For `O=C(NCC(c1cccs1)S(=O)(=O)c1cccs1)c1ccccc1F` (stereo unspecified), the survival is inactive: 70%.
For the molecule `Cc1ccccc1NC(=O)CCC(=O)N1CCSc2ccccc21`, the survival was inactive: 90%.
Turning to `Cc1ccc(S(=O)(=O)N(CC(=O)Nc2ccc(C(C)C)cc2)Cc2ccccc2)cc1`, the survival was inactive: 76%.
As to `CC(=O)N1c2ccc(S(=O)(=O)NCC3CCC(C(=O)NC(C)(C)C)CC3)cc2CC1C` (stereo unspecified), the survival was inactive: 97%.
With `Clc1ccccc1N1CCN(c2ncnc3c2c(-c2ccccc2)cn3-c2ccccc2)CC1` the figure was inactive: 99%; with `CCN(CC)c1nn2c(=O)c(C(=O)NCc3ccc(OC)cc3OC)cnc2s1`, inactive: 70%.
With `Cc1ccc(-n2nc3ccc(NC(=O)c4oc5ccccc5c4C)cc3n2)cc1` the figure was inactive: 62%; with `CCOC(=O)c1[nH]c2ccccc2c1NC(=O)c1ccccc1OCC`, inactive: 94%.
On to `COc1ccccc1CNC(=O)c1ccccc1NC(=O)c1nsc2ccccc12`, for which the survival was inactive: 72%.
For `O=C(Nc1ccc2c(c1)CCCN2C(=O)c1cccs1)c1cccc(C(F)(F)F)c1`, the survival was inactive: 74%.
Regarding `O=C1COc2ccccc2N1Cc1c(F)cccc1Cl`, the survival is inactive: 106%.
Consider `Cc1nc2ccc(Br)cn2c1NC(C)(C)C`, for which the survival is inactive: 110%.
For the molecule `Clc1cccc(-n2ncc3c(NC4CCCCC4)ncnc32)c1`, the survival was inactive: 124%.
The same measure for `CCOc1ccc(-c2nnc(SCC(=O)NC3CCCC3)nc2-c2ccc(OCC)c(OC)c2)cc1OC`: inactive: 78%; for `O=C(Nc1ccccc1F)c1nc(S(=O)(=O)Cc2ccccc2F)ncc1Cl`: inactive: 18%.
With `CCN(C(=O)c1noc2c1COc1ccc(C)cc1-2)c1cccc(C)c1`, the survival was inactive: 84%.
With `CC(C)(C)OC(=O)N1CCC(c2c(C(=O)NCCN3CCC(Cc4ccccc4)CC3)cnn2-c2cccc(Cl)c2)CC1`, the survival is inactive: 127%.
As to `Cc1cccc(N2CCN(C(=O)c3cc(S(=O)(=O)N4CCC(C)CC4)cn3C)CC2)c1C`, the survival is inactive: 49%.
For the molecule `Cc1cccc(N2CCCC2=Nc2ccc(Br)cc2C#N)c1`, the survival was inactive: 116%.
With `O=C(NCCCN1CCN(c2ccccc2)CC1)c1nnc(Cc2c(F)cccc2Cl)o1` the figure was inactive: 77%; with `CCCNC(=O)c1ccc2c(c1)N=C(C)c1c(C)ccc(C)c1S2`, inactive: 83%.
Regarding `O=C(NCc1ccc(Cl)cc1)C(=O)NCC(c1cccs1)S(=O)(=O)c1ccc(Cl)cc1` (stereo unspecified), the survival was inactive: 58%.
Take `CCOC(=O)C1CCN(C(=O)c2cc3ccc4cccnc4c3[nH]2)CC1`: the survival was inactive: 88%.
On to `CCOc1ccc(CCNC(=O)C2CCN(c3ncnc4c3nc3n4CCCCC3)CC2)cc1`, for which the survival is inactive: 119%.
Take `CC1CCCC(C)N1C(=O)CSc1nc2ccccc2n1CC(=O)NC1CCCC1` (stereo unspecified): the survival was inactive: 104%.
The same measure for `Cc1ccccc1-c1noc(-c2ccccc2OCC(=O)Nc2cccc([N+](=O)[O-])c2)n1`: inactive: 92%; for `Cc1cccc(C)c1NC(=O)Cn1nnc(S(=O)(=O)c2ccccc2)c1N`: inactive: 90%.
As for `O=C1CN(C(=O)c2ccc(S(=O)(=O)N3CCCC3)cc2)C(c2ccccc2)c2cc(F)ccc2N1` (stereo unspecified), the survival is inactive: 90%.
The same measure for `N#Cc1c(-c2ccccc2)cc(-c2ccccc2)nc1SCC(O)CS(=O)(=O)Cc1ccc(Cl)cc1` (stereo unspecified): inactive: 80%; for `Cn1nnc2cc(C(=O)NCc3ccco3)ccc21`: inactive: 104%.
Turning to `Cc1cc(NC(=O)Cc2ccccc2)cc(-c2nc3ccccc3o2)c1O`, the survival is inactive: 82%.
For `CCn1cc(/C=C(\NC(=O)c2cc(OC)c(OC)c(OC)c2)C(=O)NCCCn2ccnc2)c2ccccc21`, the survival was inactive: 103%.
On to `CC(C)CC(=O)Nc1cccc(-c2nnc(-c3cccc(NC(=O)CC(C)C)c3)o2)c1`, for which the survival is inactive: 113%.
Take `CN(C)c1ccc(Nc2ncnc3c2c(-c2ccccc2)cn3-c2cccc(Cl)c2)cc1`: the survival is inactive: 136%.
The same measure for `CCOC(=O)c1cc2c(=O)n3ccccc3nc2n(C(C)C)c1=NC(=O)C(C)(C)Oc1ccc(Cl)cc1`: inactive: 64%; for `Cc1c(C(=O)NCCN(C)C)oc2c1-c1nn(Cc3cccc(Cl)c3)cc1CC2`: inactive: 89%; for `Cc1nc(-c2ccc(F)cc2)sc1CCNC(=O)Cc1ccc(F)cc1`: inactive: 71%.
In the case of `COC(=O)c1ccccc1NS(=O)(=O)c1cc2c(cc1C)N(C)CCO2`, the survival was inactive: 86%.
On to `CC(=O)Nc1ccccc1-c1n[nH]c(=S)[nH]c1=O`, for which the survival was inactive: 112%.
As for `Cc1cccc(S(=O)(=O)c2cn(Cc3ccccc3)c3cc(N4CCCCC4)c(F)cc3c2=O)c1`, the survival is inactive: 99%.
The same measure for `CCN(Cc1nc(-c2ccc(OC)c(OC)c2)no1)S(=O)(=O)c1ccc(OC)cc1`: inactive: 73%; for `COc1ccc(-c2nc3sc(CCNC(=O)c4ccc(Br)o4)c(C)n3n2)cc1`: inactive: 73%.
Take `O=C1C(CO)NC(=S)N1c1ccccc1` (stereo unspecified): the survival was inactive: 121%.
Turning to `CCC1CCCCN1c1ncnc2c1nnn2Cc1ccccc1Cl` (stereo unspecified), the survival was inactive: 105%.
As for `CCN(CC)C(=O)c1c(-c2ccccc2)c(-c2ccccc2)nn(CC)c1=O`, the survival is inactive: 118%.
Turning to `COc1ccccc1N1CCN(C(=O)CN2C(=O)COc3ccc(S(=O)(=O)N4CCOCC4)cc32)CC1`, the survival was inactive: 98%.
For the molecule `COc1ccc(CCC(=O)NC2CC(=O)N(c3ccc(F)cc3)C2)cc1` (stereo unspecified), the survival was inactive: 83%.
Regarding `Cc1cccc(CCNCc2cc3cc4c(cc3[nH]c2=O)OCO4)c1`, the survival was inactive: 106%.
Regarding `O=C(CSc1nc(=O)n(Cc2ccccn2)c2c1CCC2)Nc1ccccc1`, the survival is inactive: 80%.
For the molecule `CC(C)(C)OC(=O)N1CCC(c2c(C(=O)NC3CCCCC3)cnn2-c2ccc(F)cc2F)CC1`, the survival was inactive: 60%.
The same measure for `COc1cc(CNC(=O)c2cnc(SC)nc2-c2ccccc2)cc(OC)c1OC`: inactive: 49%.
`Cc1ccc(S(=O)(=O)C(CNS(=O)(=O)c2cc(F)ccc2F)c2cccs2)cc1` (stereo unspecified): the survival is inactive: 75%.
Regarding `CSc1ccccc1NC(=O)CCS(=O)(=O)c1nc(-c2ccc3c(c2)OCO3)cc(C(F)(F)F)n1`, the survival was inactive: 139%.
Regarding `CN(C)S(=O)(=O)c1ccc(S(=O)(=O)N2CCC(c3nc4ccccc4s3)CC2)cc1`, the survival is inactive: 95%.
In the case of `CCN1CCN(c2oc(-c3ccc(COc4ccccc4C)o3)nc2C#N)CC1`, the survival was inactive: 112%.
As to `O=C(O)c1ccccc1C(=O)Nc1ccc(Br)c2cccnc12`, the survival was inactive: 62%.
